# Measurements reported in the supplement of paper PMC7826260.
# This is one part of the list. Viral Rep nickase domains cut single-stranded DNA in vitro for 1 h at 37 °C with 3 µM enzyme; only the middle of the 90-letter strands is printed. The score is log2 (uncut reads / reads without enzyme); strong cutting gives strongly negative numbers. There is no active / inactive call. The scaling is to total reads; uncut strands gain when others are lost, and binding without cutting may add a little.
# Assays:
# Assay in all cases: uncleaved DNA left, log2 of reads against the no-enzyme library (log2 ratio); higher = less cleavage (more negative = more Rep cleavage of the k-mer); sequences stand for … in CTCGTCCG…ACCGGAGA
# [1] = system: T1, Rep nickase domain of Muscovy duck circovirus
# T1 sequence (Rep 1-111, printed without the tag): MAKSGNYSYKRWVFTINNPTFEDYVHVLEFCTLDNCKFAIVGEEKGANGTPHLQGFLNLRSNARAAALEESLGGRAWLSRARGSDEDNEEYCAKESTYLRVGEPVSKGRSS
# Procedure: (§1)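 A pool of 90-nt single-stranded DNAs with seven random bases just before the constant AC of the nick site (name = the seven bases) was cut by 3 µM recombinant His6-SUMO-tagged Rep nickase domain (300 nM DNA, 50 mM HEPES pH 8.0, 50 mM NaCl, 1 mM MnCl2, 1 h, 37 °C, three replicates). Uncut DNA was amplified and sequenced.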
# [2] = system: T2, Rep nickase domain of banana bunchy top virus
# T2 sequence (Rep 1-94, printed without the tag): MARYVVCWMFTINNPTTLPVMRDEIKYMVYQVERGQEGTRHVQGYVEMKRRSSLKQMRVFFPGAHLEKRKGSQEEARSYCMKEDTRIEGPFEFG
# Procedure: as §1
# [3] = system: T3, Rep nickase domain of cabbage leaf curl virus
# T3 sequence (Rep 1-116, printed without the tag): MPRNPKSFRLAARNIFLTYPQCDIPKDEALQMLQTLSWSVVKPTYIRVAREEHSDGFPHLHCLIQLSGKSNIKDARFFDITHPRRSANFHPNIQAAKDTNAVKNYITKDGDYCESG
# Procedure: as §1
# [4] = system: T4, Rep nickase domain of chickpea chlorotic dwarf virus
# T4 sequence (Rep 1-124, printed without the tag): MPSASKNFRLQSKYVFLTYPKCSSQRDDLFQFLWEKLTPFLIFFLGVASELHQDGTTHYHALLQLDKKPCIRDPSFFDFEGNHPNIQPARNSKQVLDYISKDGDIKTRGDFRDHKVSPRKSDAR
# Procedure: as §1
# [5] = system: T5, Rep nickase domain of faba bean necrotic yellows virus
# T5 sequence (Rep 1-98, printed without the tag): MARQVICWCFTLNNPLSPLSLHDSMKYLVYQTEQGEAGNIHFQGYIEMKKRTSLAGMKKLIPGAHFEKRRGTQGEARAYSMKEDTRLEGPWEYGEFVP
# Procedure: as §1
# [6] = system: T6, Rep nickase domain of maize striate mosaic virus
# T6 sequence (Rep 1-117, printed without the tag): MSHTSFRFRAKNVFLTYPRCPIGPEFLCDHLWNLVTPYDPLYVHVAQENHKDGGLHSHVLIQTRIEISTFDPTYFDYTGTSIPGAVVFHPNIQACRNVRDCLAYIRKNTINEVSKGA
# Procedure: as §1
# [7] = system: T7, Rep nickase domain of porcine circovirus 2
# T7 sequence (Rep 2-116, printed without the tag): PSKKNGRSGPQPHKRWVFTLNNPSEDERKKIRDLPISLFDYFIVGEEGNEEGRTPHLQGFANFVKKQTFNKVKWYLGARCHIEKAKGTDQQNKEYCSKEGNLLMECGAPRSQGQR
# Procedure: as §1
# [8] = system: T8, Rep nickase domain of tomato yellow leaf curl virus
# T8 sequence (Rep 1-136, printed without the tag): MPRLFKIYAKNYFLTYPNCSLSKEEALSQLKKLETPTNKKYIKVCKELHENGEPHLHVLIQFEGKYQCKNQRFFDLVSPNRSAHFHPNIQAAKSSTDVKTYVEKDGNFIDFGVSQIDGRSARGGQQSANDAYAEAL
# Procedure: as §1
# [9] = system: T9, Rep nickase domain of wheat dwarf virus
# T9 sequence (Rep 1-137, printed without the tag): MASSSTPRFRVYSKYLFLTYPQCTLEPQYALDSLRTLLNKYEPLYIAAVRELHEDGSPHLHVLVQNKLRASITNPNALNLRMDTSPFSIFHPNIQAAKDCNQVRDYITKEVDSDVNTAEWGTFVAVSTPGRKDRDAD
# Procedure: as §1
Sequence,uncleaved DNA left (log2) [1],uncleaved DNA left (log2) [2],uncleaved DNA left (log2) [3],uncleaved DNA left (log2) [4],uncleaved DNA left (log2) [5],uncleaved DNA left (log2) [6],uncleaved DNA left (log2) [7],uncleaved DNA left (log2) [8],uncleaved DNA left (log2) [9]
CACGTTT,0.00572,-0.0894,-0.55,-2.69,0.0605,-0.44,-0.836,-0.0452,-0.208
GCCTAAA,-0.198,-0.0482,0.135,0.375,-0.133,0.205,-0.183,-0.0622,-0.142
ATGTCAT,-0.0866,0.0772,0.074,-0.0886,-0.0352,0.0862,-2.08,0.0258,-0.00608
GATTCCT,-2.84,-2.75,0.0189,-1.87,-0.184,0.83,-3.29,0.0163,-0.115
AGATGTT,-3.12,-0.238,-1.99,-2.71,0.0792,0.0743,-3.77,0.0245,-1.96
GAAAGGG,0.113,-0.0134,0.0728,0.386,0.0711,-0.195,0.189,0.0633,0.11
TCCTGGG,-0.0499,-0.0675,-0.35,-0.372,0.0273,-0.74,0.191,0.0109,0.0337
TATAAAC,0.044,-0.0114,0.148,-0.252,0.0332,-0.31,0.121,0.0841,0.0849
AGCCTCA,0.0881,0.0658,0.429,0.416,0.0434,0.819,-0.0935,0.0288,0.108
TGACGCT,-0.0356,-0.163,-0.228,-1.38,-0.14,-0.51,-0.195,-0.115,-0.224
CGTTGAA,0.0354,0.0817,-0.117,-0.342,0.111,-0.83,0.0176,0.0245,-0.0075
CCGGTCA,-0.00768,-0.0471,0.177,-0.0114,-0.0547,0.499,-0.109,-0.0041,-0.0702
ACTGGAT,0.124,0.0635,0.245,1.55,-0.017,1.65,0.128,-0.0656,-0.0607
TCATGGG,0.135,-0.0165,-0.624,-0.658,0.0791,-1.01,0.109,0.0788,-0.0844
AGAAGTT,0.062,0.144,-0.0636,-1.47,0.0638,-0.0357,-0.334,-0.0145,0.042
GCACCCC,-0.116,0.134,0.118,0.397,0.0182,0.301,-0.365,-0.0117,0.104
TCCGAGT,-0.00996,-0.128,0.595,1.06,0.0405,1.11,-0.0744,0.0028,0.0677
TCGTCAA,-0.0534,-0.138,0.0578,-0.0693,-0.0962,-0.342,-0.197,-0.0869,-0.0675
CACTATC,0.0912,0.0445,-0.024,-0.508,-0.00857,-0.49,-2.14,0.0813,0.024
GACACAA,0.0527,0.139,0.376,0.781,0.114,0.672,0.242,0.222,0.183

Sequence,uncleaved DNA left (log2) [1],uncleaved DNA left (log2) [2],uncleaved DNA left (log2) [3],uncleaved DNA left (log2) [4],uncleaved DNA left (log2) [5],uncleaved DNA left (log2) [6],uncleaved DNA left (log2) [7],uncleaved DNA left (log2) [8],uncleaved DNA left (log2) [9]
CAGAGAT,0.0829,0.168,0.381,1.58,0.0314,1.9,-0.021,-0.157,-0.023
GACCGGC,-0.132,-0.0797,-0.0308,0.22,-0.12,-0.255,-0.00327,-0.141,-0.209
TCCAGAT,0.0465,0.0307,0.218,0.82,-0.00801,1.26,0.1,-0.192,-0.0933
AGAGGGC,0.0525,-0.0179,0.29,0.699,-0.0321,0.44,0.137,-0.000631,0.0459
GAGTTGC,-0.0206,-0.0673,-0.467,-0.279,0.0663,-0.807,0.0158,0.025,-0.104
CTTCCTT,-0.0305,0.0163,-0.0816,-2.3,-0.0478,-0.695,-0.549,0.028,-0.0427
TGATGCG,-0.0224,-0.0739,-0.296,1,0.0311,0.552,0.106,-0.178,0.00993
TGACTTG,0.0324,-0.235,-0.112,0.374,0.0439,1.08,-0.0538,-0.134,-0.0239
ACTCATA,0.0925,0.0662,-0.0869,-0.882,0.0454,-0.719,0.0819,0.0376,0.103
GATTGGG,0.095,0.049,-0.527,-0.228,0.12,-0.756,0.212,0.205,-0.0287
AGTCGAA,0.0913,-0.0286,-0.0303,0.183,0.0141,-0.136,-0.48,-0.0925,-0.0173
TACAGCC,0.011,0.0624,-0.225,-0.839,0.0663,-0.857,0.19,0.11,0.0887
CTTTAGG,0.15,0.0304,0.408,1.14,0.0152,1.1,0.103,-0.00882,0.129
AGGGGGC,0.104,0.0242,0.605,1.14,-0.0648,1.25,0.253,-0.0288,-0.0382
TGTCTGA,0.101,-0.106,0.234,0.421,0.0618,0.656,0.135,0.15,0.0842
TTTACCG,-0.0629,0.00891,-0.682,-0.209,0.0175,-0.179,-0.102,-0.0251,-0.119
ACTATTT,-0.124,-0.189,-0.386,-2.5,-0.0137,-0.898,-3.26,-0.204,-0.0796
CGCTTGC,-0.138,-0.106,-0.742,-0.536,-0.064,-1.02,0.058,-0.159,-0.166
CATCCTA,-0.228,-0.0504,-0.141,-2.15,-0.0678,-0.748,-0.233,-0.0043,0.0176
TCTACAA,0.0196,0.116,0.0376,-1.37,0.0377,-0.127,-0.0342,0.126,0.0774

Sequence,uncleaved DNA left (log2) [1],uncleaved DNA left (log2) [2],uncleaved DNA left (log2) [3],uncleaved DNA left (log2) [4],uncleaved DNA left (log2) [5],uncleaved DNA left (log2) [6],uncleaved DNA left (log2) [7],uncleaved DNA left (log2) [8],uncleaved DNA left (log2) [9]
CTCAAAG,0.101,0.0517,-0.829,-0.449,0.0317,-1.2,0.165,0.252,-0.114
AGGTGCA,-0.0593,-0.0201,-0.103,-0.241,-0.0624,-0.622,-0.0665,0.104,-0.0445
GTTAAAA,0.00996,0.13,0.313,0.844,0.00289,1.79,0.0601,-0.0413,0.0422
TGCGTGC,0.131,0.0949,0.0655,0.249,-0.0571,-0.00255,0.169,0.0403,-0.0774
AACTCCG,0.0155,0.0269,-0.757,-0.219,0.0394,-1.09,0.0613,0.0569,0.00351
ACTTCGT,-0.0181,-0.0474,-0.809,-0.89,0.0456,-1.14,-0.0529,-0.0213,-0.0136
TTCTGAC,0.0992,-0.044,-0.0113,0.143,0.0925,-0.0697,0.0523,0.0395,0.0584
GGGAGAG,0.00859,0.0819,0.953,2.09,0.0916,2.22,0.279,0.0316,0.216
CTAAGGG,0.0118,-0.0353,-0.219,-0.0282,0.0833,-0.694,0.182,0.00584,-0.0026
CCGGCCG,-0.0503,-0.079,-0.692,-0.194,-0.121,-0.801,0.106,-0.0792,-0.233
GTTTATT,-2.57,-0.362,0.243,0.403,-0.0316,1.65,-2.66,0.0996,0.0168
TCTGTTT,0.0459,0.0255,-0.0355,-1.55,0.066,-0.00707,-0.15,-0.0354,-0.0699
CACCACT,-0.285,-0.162,-0.856,-3.15,-0.153,-1.15,-1.59,-0.0706,-0.142
GGACGTC,0.0844,0.172,0.857,1.81,0.0943,2.2,0.169,0.0352,0.11
AAATAGT,-3.96,-0.792,-4.42,-3.57,-0.0745,-3.78,-4.48,-0.551,-4.11
CGTTCAT,-0.132,0.013,0.0338,-0.0652,-0.0775,0.00353,-0.279,0.0638,0.0412
AGACTCG,0.129,0.0781,-0.211,-0.115,0.0149,-0.548,0.243,0.00241,0.0898
AACGCTT,0.011,-0.0917,0.0139,-2.25,0.0503,1.13,-0.564,-0.228,0.0123
TGGATAA,0.0327,0.213,0.469,1.28,-0.0464,1.51,0.212,0.103,0.177
CACCTTA,-0.017,0.0261,-0.143,-2.25,-0.0236,-0.62,-0.338,0.0516,-0.0991
